# In all, about 110,000 compounds were measured (“z-score”: median about -0.1, highest 2% from about 2 on). This is one part of the list.
# Biological target: Metabotropic glutamate receptor 8 (Rattus norvegicus) (UniProt P70579)
# Experiment: mGluR8 Gi/Go-coupled signaling modulation – cell-based, rat, thallium flux, HTS, primary screen (AID 488969)
# Conditions: HEK293 rat mGluR8, GIRK (G protein-gated inwardly rectifying potassium channel) thallium flux, FluoZin2; at 10 µM; stronger effect = higher value; submaximal glutamate (EC20) added with thallium
# UniProt P70579, sequence (P70579 whole entry, looked up): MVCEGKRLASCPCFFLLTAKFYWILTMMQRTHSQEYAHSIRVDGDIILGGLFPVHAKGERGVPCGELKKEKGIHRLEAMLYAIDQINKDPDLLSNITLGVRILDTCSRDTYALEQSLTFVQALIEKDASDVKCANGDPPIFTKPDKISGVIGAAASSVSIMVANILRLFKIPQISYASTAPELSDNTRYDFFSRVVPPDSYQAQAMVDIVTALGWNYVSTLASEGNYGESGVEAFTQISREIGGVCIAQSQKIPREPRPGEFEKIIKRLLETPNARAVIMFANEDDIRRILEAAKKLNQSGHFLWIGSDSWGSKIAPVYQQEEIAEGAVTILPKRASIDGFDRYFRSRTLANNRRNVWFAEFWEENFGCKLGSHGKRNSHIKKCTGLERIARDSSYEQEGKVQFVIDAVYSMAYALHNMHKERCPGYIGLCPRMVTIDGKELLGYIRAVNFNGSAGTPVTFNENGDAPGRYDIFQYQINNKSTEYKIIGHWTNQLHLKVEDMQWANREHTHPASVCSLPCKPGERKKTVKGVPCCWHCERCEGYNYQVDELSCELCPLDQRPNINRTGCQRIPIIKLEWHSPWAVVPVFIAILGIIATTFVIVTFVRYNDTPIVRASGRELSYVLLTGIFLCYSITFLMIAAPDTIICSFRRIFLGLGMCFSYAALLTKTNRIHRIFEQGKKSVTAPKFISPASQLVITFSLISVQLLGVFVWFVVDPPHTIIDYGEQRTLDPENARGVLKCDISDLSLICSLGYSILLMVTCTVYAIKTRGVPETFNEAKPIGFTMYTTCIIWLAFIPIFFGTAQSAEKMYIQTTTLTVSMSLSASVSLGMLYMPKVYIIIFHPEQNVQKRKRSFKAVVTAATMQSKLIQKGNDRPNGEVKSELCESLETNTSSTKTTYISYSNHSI
row,SMILES,z-score
1,CCS(=O)(=O)Nc1cccc(C2=NN(S(=O)(=O)c3ccccc3)C(c3cccs3)C2)c1 (centres undefined),-0.425
2,Cc1ccc(CN2CCN(/N=C/c3sccc3C)CC2)c(C)c1,0.357
3,COc1cc(OC)cc(C(=O)Nc2ncc3c(n2)CC(C)CC3=O)c1 (centres undefined),-0.188
4,O=c1[nH]c(CSc2ncccn2)nc2c1cnn2-c1ccccc1,-1.65
5,CCOC(=O)c1cc(C)sc1/N=C/C1C(=O)CC(C)(C)CC1=O,-0.492
6,O=c1cc(CN2CCc3ccccc32)nc2sccn12,0.496
7,CC(C)c1ccc(S(=O)(=O)N2CCN(C(C)C(=O)Nc3ccccc3-c3ccccc3)CC2)cc1 (centres undefined),-0.0239
8,COCC(=O)n1nc(-c2ccccc2)nc1NCc1ccc(F)cc1,0.19
9,CCC(CC)c1nnc(NC(=O)Oc2ccccc2)s1,-0.366
10,CC(=O)Nc1ccc(-c2ccccc2)s1,0.021
11,CCc1nnc(NC(=O)C2CCCN(c3nc4ccccc4s3)C2)s1 (centres undefined),-0.0951
12,CCC(C)c1ccc(NC(=O)C2CCN(c3ncccn3)CC2)cc1 (centres undefined),1.06
13,Cc1cc(C)n(-c2ccc([N+](=O)[O-])cc2)n1,0.27
14,O=C(N/N=C/c1ccc(O)cc1)c1nc(-c2ccccc2)n(-c2ccccc2)n1,-0.387
15,COc1cccc(NC(=O)C23CCC(C)(C(=O)O2)C3(C)C)c1 (centres undefined),0.37
16,COC(=O)c1cc(S(=O)(=O)n2nc(C)c(Br)c2C)c(Cl)cc1Cl,-0.276
17,Cc1ccc(C)c(N(CC(=O)NCCC2=CCCCC2)S(C)(=O)=O)c1,-0.0583
18,CC1=NNC(=O)C1C(c1ccc(F)cc1)C(C#N)C#N (centres undefined),-0.411
19,Cc1ccc(NC(=O)c2cc(-n3cnnc3)ccc2Cl)cc1,-0.0854
20,CCn1c(SCc2nc(-c3ccc(OC)c(OC)c3)no2)nnc1-c1cccs1,-1.5
21,CCCOc1ccccc1C(=O)N(Cc1cccs1)C1CCS(=O)(=O)C1 (centres undefined),1.01
22,O=C1c2ccccc2C(=O)N1CCCc1nc(-c2ccccc2)no1,0.115

row,SMILES,z-score
1,COn1c(=O)c(-c2ccc(Cl)cc2)[n+]([O-])c2ccccc21,-0.503
2,Cc1cc(C)nc(NC(=NCCc2c[nH]c3ccccc23)NC(=O)Nc2ccc(Cl)cc2)n1,0.791
3,Cc1ccc(S(=O)(=O)NCCC(=O)OCn2nnc3ccccc3c2=O)cc1,-0.242
4,Cc1cc(C)cc(-n2c(C)cc(/C=N\NC(=O)COc3cccc4cccnc34)c2C)c1,-0.306
5,COC(=O)CSc1nnc(CSc2nc(C)cc(C)n2)n1Cc1ccco1,-0.942
6,Cc1onc(-c2ccccc2Cl)c1C(=O)Nc1cccnc1,0.0438
7,O=c1[nH]n(-c2ccc(F)cc2)c2ncccc12,-0.19
8,COC(=O)Nc1cc(C)nc2ccccc12,0.301
9,CC(C)C(c1nnnn1Cc1ccc2c(c1)OCO2)N1CCN(c2ccccc2)CC1 (centres undefined),0.56
10,CC(C)C(C(=O)Nc1ccc(N2CCOCC2)cc1)N1C(=O)c2ccccc2C1=O (centres undefined),0.0739
11,O=C(OC1CCS(=O)(=O)c2sccc21)c1ccccc1 (centres undefined),-0.137
12,CCN(CC)S(=O)(=O)c1ccc(NC(=O)c2ccc(Sc3nncn3C)c([N+](=O)[O-])c2)cc1,-0.262
13,O=C(COC(=O)c1nc(-c2ccccc2)n(-c2cccc(C(F)(F)F)c2)n1)NCc1cccs1,-1.35
14,O=C1CC(C(=O)O)c2ccccc2N1 (centres undefined),-0.483
15,Cn1nnnc1SCC(=O)NCC(=O)c1ccccc1,0.594
16,O=C1c2ccccc2C(=O)N1CCCCSc1nc2ccccc2o1,-0.155
17,CC1CCc2c(sc3nc(CN4CCN(S(=O)(=O)c5ccccc5[N+](=O)[O-])CC4)[nH]c(=O)c23)C1 (centres undefined),-0.269
18,O=C(NN=C1C2CC3CC(C2)CC1C3)c1cccc(S(=O)(=O)N2CCOCC2)c1,0.288
19,Cc1nn(C)c(C)c1CN(C)S(=O)(=O)c1ccc(F)cc1,-0.128
20,CCOC(=O)/C(C#N)=C/c1cc2ccccc2nc1Cl,-0.3
21,O=C1NC(c2ccc(Br)cc2)=N/C1=C/c1ccco1,-0.286
22,CCOC(=O)C1=C(C)NC(=O)NC1c1ccsc1 (centres undefined),0.00268

row,SMILES,z-score
1,COc1ccc(NC(=O)CCS(=O)(=O)c2ccc3c(c2)CCCN3C(C)=O)cc1Cl,-0.13
2,COc1ccc(CNC(=O)C(OC(=O)c2ccco2)c2ccc(OC)cc2)cc1 (centres undefined),-0.178
3,CCNC(=O)NC(=O)C(C)OC(=O)c1oc2ccc(OCC)cc2c1C (centres undefined),1.56
4,O=C(NCCCn1ccnc1)C1CC2CCC1C2 (centres undefined),-0.00499
5,CCOc1ccc(Cn2c3ccc(OC)cc3c3nc4ccccc4nc32)cc1OC,-0.0527
6,CC(C)CNC(=O)c1ccccc1NC(=O)c1ccccc1N(C)S(=O)(=O)c1ccccc1,0.173
7,CC1CC2(CCCC2)N(C(=O)c2ccccc2)Cc2ccccc21 (centres undefined),-0.259
8,Cc1cc2cc(C#N)c(NCCNC(=S)NCCCN3CCOCC3)nc2cc1C,0.0244
9,COc1ccccc1N1CCN(C(=O)CSc2nnc(NC(=O)C3CCC3)s2)CC1,-0.511
10,CC1CCCC(N2CCN(C(=O)c3cccc(F)c3)CC2)C1 (centres undefined),-0.358
11,CSc1ccc(/C=N/NC(=O)CNc2cccc3ccccc23)cc1,0.3
12,CCc1ccccc1N1CC23C=CC(O2)C(C(=O)O)C3C1=O (centres undefined),0.331
13,CCCC(=O)Nc1ccc2c(c1)nc(CN1CCCC1)n2C,-0.187
14,O=C(Nc1nc2ccccc2s1)c1cnccn1,0.198
15,CCOc1ccc(C(=O)Nc2cnn(Cc3ccc(Cl)c(Cl)c3)c2)cc1,-0.23
16,O=C(Nc1cccc(C(F)(F)F)c1)c1cccnc1N1CCCC1,-0.38
17,COc1ccc(OC)c(N2C(=O)CC(C(C)c3ccccc3)C2=O)c1 (centres undefined),0.00323
18,CCNC(=O)/C(=C\c1ccc2c(c1)OCO2)NC(=O)c1ccc(Br)cc1,-0.165
19,O=C(N/N=C/c1ccc(O)cc1)/C(=C/c1ccccc1)CCO,-0.0513
20,Cc1ccc(CSc2nc3ccccc3c(=O)n2Cc2ccco2)cc1,-0.135
21,Cc1ccc(C2CC(=O)NC(SCCC(C)C)=C2C#N)cc1 (centres undefined),0.189
22,COc1cc(-c2nnc(SCc3cc(=O)oc4cc(O)c(O)cc34)o2)cc(OC)c1OC,-0.37

row,SMILES,z-score
1,CCN(Cc1ccccc1)C(=O)C1CCN(Cc2ccc(OC)c(OC)c2OC)CC1,-0.00879
2,CCOC(=O)c1[nH]c(C)c(C(=O)N(C)Cc2ccccc2)c1C,0.89
3,Cc1cccc2cc(CN(Cc3ccco3)C(=O)Nc3cccc(C#N)c3)c(Cl)nc12,-0.186
4,CC(=O)c1cccc(NC(=O)NC(C)c2ccncc2)c1 (centres undefined),0.208
5,CC1CN(c2nc(-c3ccc(Br)cc3)nnc2-c2ccccc2)CC(C)N1 (centres undefined),1.79
6,COCCNC(=O)CSc1nc2cc(OC)c(OC)cc2c(=O)n1Cc1ccc(OC)cc1,0.134
7,Cc1noc(/C=C/c2ccco2)c1S(=O)(=O)N1CCC(C(=O)NC(C)c2ccccc2)CC1 (centres undefined),-0.435
8,COc1cccc(/C(O)=C2\C(=O)C(=O)N(c3ccccn3)C2c2ccccc2OC)c1 (centres undefined),0.637
9,Nc1c(C(=O)Nc2cccc(Cl)c2Cl)sc2nc(-c3cccnc3)ccc12,-0.269
10,O=[N+]([O-])c1cccc(C=Nc2cc3c(cc2Br)OCCO3)c1,-0.172
11,CC(C)(C)CC(=O)NC(=S)NCCc1ccccc1,0.337
12,CCOC(=O)c1cnc(SCc2nc(N)nc(Nc3ccc(F)cc3)n2)nc1N,0.602
13,Cc1cccc(-n2c(O)c(C=Nc3c(C)n(C)n(-c4ccccc4)c3=O)c3ccccc3c2=O)n1,-0.137
14,Cn1c(=O)n(CCN2CCOCC2)c(=O)c2c1nc1n2CCN1c1ccccc1,0.384
15,O=C(NCc1nc2ncc(Br)cc2[nH]1)c1ccccc1,-0.272
16,COc1ccc(S(=O)(=O)N2CCCC2C(=O)Nc2ccc(C)cc2)cc1 (centres undefined),0.0913
17,CC(C)Nc1nnc(SCC(=O)Nc2ccc(F)cc2)s1,0.0806
18,Cc1cc(C)c2cc(CN(Cc3nnnn3C3CCCCC3)CC3CCCO3)c(=O)[nH]c2c1 (centres undefined),0.415
19,Cc1sc2ncnc(SCC(=O)NNC(=O)COc3cccc4ccccc34)c2c1C,0.336
20,CC(C)c1nc(-c2ccccc2)c(-c2ccccc2)[nH]1,-0.0702
21,Cc1ccc(C)c(Cn2c(C(=O)OC(C)C)cc3c2ccn3C)c1,0.64
22,CN(C)S(=O)(=O)c1cccc(NC(=S)N/N=C/C(c2ccccc2)c2ccccc2)c1,0.384

row,SMILES,z-score
1,CC1(C)NC(=O)N(CCOc2cccc(Cl)c2Cl)C1=O,-1.07
2,C=CCc1cc(Cl)ccc1OCCOCCNCCOC,0.218
3,Cc1c(N=Cc2ccc(Cl)o2)c(=O)n(-c2ccccc2)n1C,-0.202
4,CC(C)=C1C2C=CC1C1C(=O)N(c3ccc4c(c3)OCO4)C(=O)C21 (centres undefined),0.577
5,COC(=O)c1cc(C(=O)Nc2nnc(CC(C)(C)C)s2)cc([N+](=O)[O-])c1,0.0219
6,Cc1onc(-c2ccccc2Cl)c1C(=O)OCC(=O)c1ccccc1,-0.213
7,CCOC(=O)C1Cc2ccccc2C(=O)O1 (centres undefined),0.177
8,O=c1cc(-c2ccncc2)oc2ccccc12,-0.149
9,O=C(Nc1ccc(F)cc1)Nc1cc(OCC(F)(F)F)cc(OCC(F)(F)F)c1,-0.712
10,COc1ccc(S(=O)(=O)N2CCCC(C(=O)N3CCN(C)CC3)C2)cc1C (centres undefined),-0.202
11,CCOc1ccc(S(=O)(=O)NCc2cccs2)cc1,0.106
12,COc1ccc(S(=O)(=O)N(C)CC(=O)N2CCN(Cc3ccccc3)CC2)cc1C,-0.0728
13,CCCn1nc2ccccc2c1P(=N)(N1CCOCC1)N1CCOCC1,0.581
14,COc1ccc(-n2cnc3cc(NCc4ccco4)ccc32)cc1,-0.49
15,COC(=O)c1cc(C(=O)Nc2cc(C)ccn2)cc([N+](=O)[O-])c1,-0.407
16,CCN(CC)Cc1ccccc1Sc1ccccc1,0.577
17,O=C(NC1CCCc2ccccc21)C1CCC(CNS(=O)(=O)c2cccc3nsnc23)CC1 (centres undefined),0.316
18,CN1CCN(S(=O)(=O)c2ccc3ccccc3c2)CC1,-0.316
19,CCOC(=O)c1c(N2C(=O)C3C4C=CC(O4)C3C2=O)sc2c1CCCC2 (centres undefined),-0.431
20,COc1ccccc1CC(=O)Nc1ccc2c(c1)CCC2,-0.00744
21,Cc1nnc(NC(=O)CSc2nnc(-c3ccc(S(=O)(=O)N4CCCC4)cc3)n2C)s1,-0.316

# From PubChem BioAssay AID488969 (Vanderbilt High Throughput Screening Facility, 2010)
